Assay results from PubChem BioAssay AID1347073 (National Center for Advancing Translational Sciences (NCATS), 2019).
Hit rate of the full screen: of about 45,000 compounds, about 200 (0.44%) were called active. Inconclusive results (about 7%) are left out. Calls come from the whole dose curve; as a rule, active = well fitted activation curve with a large enough effect; inconclusive = small, poorly fitted or top-dose-only effect; inactive = no such curve, though single readings can be large or run the other way. The list shows a part of the results.

test: qHTS of TDP-43 Inhibitors: NCGC Sytravon Library Screen; conditions: yeast TDP-43 toxicity rescue, BacTiter-Glo growth, 24 h; series mostly up to 46.1 µM; growth rescue (activation): at the top concentration; note: 0% is about no effect; nearly all actives have a fitted effect of over 55% in size
Method in brief: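 TDP-43-expressing yeast, pregrown in raffinose, seeded at OD600 0.02 in galactose medium with compound for 24 hr at 30 deg C. Growth read by BacTiter-Glo luminescence, so rescue of toxicity appears as activation.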

SMILES | growth rescue (activation)
COc1cccc(-c2nnn(C/C(N)=N/O)n2)c1 | inactive: 4.09%
CC(=O)c1ccc(NC(=O)CN2c3cccc4cccc(c34)S2(=O)=O)cc1 | inactive: 10.8%
Cc1ccc(C)c(Cn2nnc3c(=O)[nH]c(C4CCCN(S(=O)(=O)Cc5ccccc5)C4)nc32)c1 (centres undefined) | inactive: 8.08%
CCOC(=O)C1(Cc2ccc(OC)cc2)CCN(C(=O)CC2CCC(=O)N2)CC1 (centres undefined) | inactive: -3.07%
Cc1ccc(COc2ccc3c(c2)OCO3)cc1 | inactive: 12.3%
O=C(O)C1(c2ccccc2)CCN(S(=O)(=O)c2ccc(F)c(F)c2)CC1 | inactive: -9.45%
COc1ccc(OCc2nnc(SCC(=O)c3ccccc3)o2)cc1 | inactive: 32.9%
COc1ccc(CC(=O)N/N=C(\C)CC(=O)Nc2ccc(N(C)C)cc2)cc1 | inactive: 7.68%
COc1ccc2cc(C(=O)C3CCCN(C(=O)CCc4ccccn4)C3)ccc2c1 (centres undefined) | inactive: -0.582%
CC(=O)N1CCN(c2ccc(NC(=O)c3ccco3)cc2)CC1 | inactive: 8.05%
Cc1nn(CCCC(=O)N2CCN(c3ccc(F)cc3)CC2)c(C)c1[N+](=O)[O-] | inactive: 29.5%
COc1cc(S(=O)(=O)Nc2ccc3cn[nH]c3c2)ccc1Cl | inactive: -2%
Cc1ccc(/C=C/C(=O)OCC(=O)NC(C)C)o1 | inactive: -4.56%
O=C(Nc1ccc(N2CCOCC2)cc1)c1ccc(Br)o1 | inactive: 6.62%
Cc1cc(C)nc(/N=C(\N)Nc2ccc(S(=O)(=O)O)cc2)n1 | inactive: -11.1%
NC(=O)COC(=O)CNC(=O)c1cc(Cl)cc([N+](=O)[O-])c1 | inactive: 1.02%
Oc1ccccc1-c1nc(/C=C/c2ccc(F)cc2)nn1-c1ccccc1 | inactive: 3.14%
O=C(NCCCCc1ccccc1)c1cc([N+](=O)[O-])cc([N+](=O)[O-])c1 | inactive: 21.6%
CCOc1ccc(S(=O)(=O)N(CC)CC(=O)NCc2cccnc2)cc1C | inactive: -5.45%
CCN1CC=C2C(C#N)=C(N)C(C#N)(C#N)[C@H](c3ccoc3)[C@H]2C1 | inactive: 13.3%
COc1ccccc1C(=O)NNC(=O)C(=O)NC1CCCCC1 | inactive: 28.9%
COc1ccc(-c2nn3c(-c4ccccc4C)nnc3c3ccccc23)cc1 | inactive: 11.6%
O=C(NNC(=O)C1CCN(Cc2ccc(F)cc2Cl)CC1)Nc1ccc([N+](=O)[O-])cc1 | inactive: 9.85%
C/C(=N\Nc1ccccn1)c1ccc(S(=O)(=O)NCc2ccco2)cc1 | inactive: -0.611%
CC(C)c1nc2sc3c(SCC(=O)NCc4ccco4)ncnc3c2c2c1CCC2 | inactive: 11.6%
CC(NC(=O)c1ccccc1)C(=O)NC1CCCc2ccccc21 (centres undefined) | inactive: 18.5%
CCNC(=O)C(Cc1ccccc1)NC(=O)OCc1ccccc1 (centres undefined) | inactive: 6.87%

SMILES | growth rescue (activation)
COc1ccc(OCc2nnc(SCC(=O)Nc3cccc(Cl)c3)o2)cc1 | inactive: 22.1%
OCCC1CN(Cc2cccn2-c2cccnc2)CCN1Cc1ccccc1 (centres undefined) | inactive: 9.53%
Cc1cc(C)n2c(SCC(=O)NC3CCCC(C)C3C)nnc2n1 (centres undefined) | inactive: 17.3%
CO/N=C/NC(=O)NOCc1c(Cl)cccc1Cl | inactive: -20.5%
CNc1nc(NCc2cccc(OC)c2)c2sccc2n1 | inactive: 7.7%
Cc1ccc(S(=O)(=O)N2CCN(C(=O)CC(C)n3cncn3)CC2)cc1C (centres undefined) | inactive: 14.6%
Cc1ccc(S(=O)(=O)CCC(=O)Nc2ccc(F)cc2)cc1 | inactive: -15.2%
Cn1c(-c2ccc3c(c2)OCO3)cnc1NCc1ccccc1Cl | inactive: -7.94%
Cc1c(NC(=O)CN2CC(C)OC(C)C2)c(=O)n(-c2ccccc2)n1C (centres undefined) | inactive: -2.22%
Cc1cccc(Oc2coc3cc(OC(=O)c4cncc(Br)c4)ccc3c2=O)c1 | inactive: 4.26%
O=C(COc1ccc(S(=O)(=O)N2CCOCC2)cc1Cl)NCCN1CCOCC1 | inactive: 11.3%
COc1ccccc1-n1cnc2cc(NCc3cccs3)ccc21 | inactive: 29.4%
COc1ccc(Br)cc1C(=O)NC(=S)Nc1ccc(Cl)c(C(=O)O)c1 | inactive: -8.2%
O=C(Cn1cc(C(F)(F)F)ccc1=O)N1CCCc2ccccc21 | inactive: 4.31%
COc1ccc(/C=N/NC(=O)c2ccn[nH]2)cc1CN1CCOCC1 | inactive: -4.55%
CCCCCCCCNC(=S)NCCN1CCCCC1 | inactive: -7.58%
O=C(CN(c1cccc([N+](=O)[O-])c1)S(=O)(=O)c1ccccc1)NCc1cccnc1 | inactive: 13.5%
Fc1ccc(C2=CC(c3ccco3)n3nnnc3N2)cc1 (centres undefined) | inactive: 14.6%
Nc1ccc(N2CCN(c3ccc(F)cc3)CC2)cc1 | inactive: -10.2%
Cc1cccc(NC(=S)NNC(=O)c2ccc(O)cc2O)c1C | inactive: 24.6%
COc1ccc(C(=O)OCC(=O)NCc2ccccc2)c(OC)c1OC | inactive: 2.79%
O=C(NC(c1ccccc1)c1ccc2ccccc2n1)C1CCN(CCOc2ccc(Cl)cc2)CC1 (centres undefined) | inactive: -3.68%
NC(=O)CN1C(=O)NC(c2ccccc2)(c2ccccc2)C1=O | inactive: -4.82%
O=C(Nc1ccc(S(=O)(=O)Nc2ncccn2)cc1)c1ccccc1Cl | inactive: 1.47%
COc1ccc2c(CCNC(=O)c3ccc([N+](=O)[O-])cc3)c[nH]c2c1 | inactive: 3.15%
CSc1ncc(C(=O)Nc2cccc(Cl)c2C)c(C)n1 | inactive: 23.5%
COc1ccc(OCc2nnc(SCC(=O)NNC(=O)c3ccc(C)cc3)n2C)cc1 | inactive: -25.4%
